# This is one part of the list.
# B1: PhoQ; a variant is named by its letters at X, in order, P23837 (parent)
# chain: MKKLLRLFFPLSLRVRFLLATAAVVLVLSLAYGMVALIGYSVSFDKTTFRLLRGESNLFYTLAKWENNKLHVELPENIDKQSPTMTLIYDENGQLLWAQRDVPWLMKMIQPDWLKSNGFHEIEADVNDTSLLLSGDHSIQQQLQEVREDDDDAEMTHSVAVNVYPATSRMPKLTIVVVDTIPVELKSSYMVWSWFIYVLSANLLLVIPLLWVAAWWSLRPIEALAKEVRELEEHNRELLNPATTRELTSLVRNLNRLLKSERERYDKYRTTLTDLTHSLKTPLXXLQXXLRSLRSEKMSVSDAEPVMLEQISRISQQIGYYLHRASMRGGTLLSRELHPVAPLLDNLTSALNKVYQRKGVNISLDISPEISFVGEQNDFVEVMGNVLDNACKYCLEFVEISARQTDEHLYIVVEDDGPGIPLSKREVIFDRGQRVDTLRPGQGVGLAVAREITEQYEGKIVAGESMLGGARMEVIFGRQHSAPKDE
# Variants of: B1
# Assay: enrichment ratio after two sorts for PhoP signalling (ratio (wild type AVST 3.29)); higher = more functional
# Conditions: with PhoP (E. coli)
row,Variant,enrichment ratio
1,FFLC,≤ 0.25
2,RHCF,≤ 0.25
3,HPSQ,≤ 0.25
4,WRRE,≤ 0.25
5,GNLI,15.8
6,YAAT,≤ 0.25
7,VMDQ,≤ 0.25
8,NNCM,≤ 0.25
9,IRQY,≤ 0.25
10,KFTI,≤ 0.25
11,YNFD,≤ 0.25
12,NWAT,≤ 0.25
13,TACM,12.4
14,KNFE,≤ 0.25
15,QNSS,8.09
16,QEDC,≤ 0.25
17,TEFA,11.3
18,WKGP,≤ 0.25
19,SVHW,≤ 0.25
20,TYLG,6.58
21,PCPE,≤ 0.25

row,Variant,enrichment ratio
1,LLAL,≤ 0.25
2,ETSE,≤ 0.25
3,PFAQ,≤ 0.25
4,GSGM,8.45
5,MKQF,≤ 0.25
6,LEMK,≤ 0.25
7,LNPD,≤ 0.25
8,TAEI,≤ 0.25
9,PWCI,≤ 0.25
10,ATAD,≤ 0.25
11,YKWN,≤ 0.25
12,TMSE,15.9
13,DLVG,1.7
14,TITI,5.37
15,HYYS,≤ 0.25
16,SRGV,≤ 0.25
17,WFRG,≤ 0.25
18,IQMV,≤ 0.25
19,SQNG,9.56
20,YERT,≤ 0.25
21,TYKQ,≤ 0.25

row,Variant,enrichment ratio
1,LMYD,≤ 0.25
2,YPQG,≤ 0.25
3,QPNR,≤ 0.25
4,RFHW,≤ 0.25
5,VHLE,≤ 0.25
6,KYTW,≤ 0.25
7,RIVT,≤ 0.25
8,ILVR,≤ 0.25
9,GTQN,0.887
10,VSVV,≤ 0.25
11,KPFA,≤ 0.25
12,GQLG,4.28
13,VGKK,≤ 0.25
14,KRDH,≤ 0.25
15,HGFI,≤ 0.25
16,KRVN,≤ 0.25
17,YVWP,≤ 0.25
18,YDGW,≤ 0.25
19,MMAR,≤ 0.25
20,ALND,≤ 0.25
21,HFRW,≤ 0.25

row,Variant,enrichment ratio
1,SNTN,8.33
2,TRPC,≤ 0.25
3,GHQG,≤ 0.25
4,KASV,≤ 0.25
5,RDMN,≤ 0.25
6,FLPH,≤ 0.25
7,QQCV,≤ 0.25
8,YMYV,≤ 0.25
9,MHQI,≤ 0.25
10,NWYH,≤ 0.25
11,TKNS,2.26
12,ALLF,2.68
13,HDEL,≤ 0.25
14,GTIC,≤ 0.25
15,MRMW,≤ 0.25
16,YPHR,≤ 0.25
17,VEWY,≤ 0.25
18,IMLM,≤ 0.25
19,KMDM,≤ 0.25
20,TGMD,≤ 0.25
21,GMFM,≤ 0.25

# Source: a collection of fitness landscapes (doi:10.1126/science.1257360)
